The list shows a part of the results.

The test concerns the target T1, MBP-FoxP1dN (Mus musculus, UniProt P58462 326-579).
T1 sequence: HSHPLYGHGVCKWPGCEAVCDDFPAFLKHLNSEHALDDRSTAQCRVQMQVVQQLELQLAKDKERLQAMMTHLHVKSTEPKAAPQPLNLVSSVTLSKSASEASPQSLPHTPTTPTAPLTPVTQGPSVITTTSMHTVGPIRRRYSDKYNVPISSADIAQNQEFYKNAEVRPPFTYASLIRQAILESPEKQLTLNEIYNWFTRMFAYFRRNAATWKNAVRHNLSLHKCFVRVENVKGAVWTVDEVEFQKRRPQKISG
The test can be described thus: PD-seq (MBP pull-down with sequencing); 20 mM Tris-HCl pH 7.5, 100 mM NaCl, 1.5 mM MgCl2, 0.4 uM protein, 0.1 uM dsDNA library, 30 min, room temperature, amylose pull-down; high values mean tight binding. The settings on record: protein: recombinant; tags: His6-MBP; chain copies: 2; dsDNA, one strand shown. The method, boiled down: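 Binding is reads-per-million enrichment of pull-down over input, with replicates pooled. It comes from 30 min room-temperature incubation in Tris pH 7.5 buffer with NaCl and MgCl2 of 0.4 µM His6-MBP-tagged, N-terminally truncated mouse FoxP3 or FoxP1 fragment from E. coli with 0.1 µM Klenow-filled degenerate double-stranded DNA library, followed by amylose resin capture, three washes and Illumina sequencing of the released DNA.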
Consider “GATGATTGTTCTCCCAGCTGATGAATTGGGGTAGTCGAGTAAACAAATTTTCCTAATCTTTCTGTTCAAGCGCCATCTAC”, for which the binding signal is 0.905 RPM ratio (pull-down/input).
On to “GATGATTGTTCTCCCAGCTGATGAATTACTGTTGTCGAGTAAACAAATTTTCCTAATCTTTCTGTTCAAGCGCCATCTAC”, for which the binding signal is 2.55 RPM ratio (pull-down/input).
The value for “GATGATTGTTCTCCCAGCTGATGAATTCATTATCTCGAGTAAACAAATTTTCCTAATCTTTCTGTTCAAGCGCCATCTAC” was 0.894 RPM ratio (pull-down/input); that for “GATGATTGTTCTCCCAGCTGATGAATTCAGGGTGTCGAGTAAACAAATTTTCCTAATCTTTCTGTTCAAGCGCCATCTAC” was 0.842 RPM ratio (pull-down/input).
The value for “GATGATTGTTCTCCCAGCTGATGAATTAATAAAATCGAGTAAACAAATTTTCCTAATCTTTCTGTTCAAGCGCCATCTAC” was 1.16 RPM ratio (pull-down/input); that for “GATGATTGTTCTCCCAGCTGATGAATTGCTGTGCTCGAGTAAACAAATTTTCCTAATCTTTCTGTTCAAGCGCCATCTAC” was 1.06 RPM ratio (pull-down/input).
Under “GATGATTGTTCTCCCAGCTGATGAATTACCTCAGTCGAGTAAACAAATTTTCCTAATCTTTCTGTTCAAGCGCCATCTAC” stands 0.988 RPM ratio (pull-down/input); under “GATGATTGTTCTCCCAGCTGATGAATTGTGCGCCTCGAGTAAACAAATTTTCCTAATCTTTCTGTTCAAGCGCCATCTAC”, 1.01 RPM ratio (pull-down/input); under “GATGATTGTTCTCCCAGCTGATGAATTGTCAAGGTCGAGTAAACAAATTTTCCTAATCTTTCTGTTCAAGCGCCATCTAC”, 0.882 RPM ratio (pull-down/input).
As to “GATGATTGTTCTCCCAGCTGATGAATTCTCCGTGTCGAGTAAACAAATTTTCCTAATCTTTCTGTTCAAGCGCCATCTAC”, the binding signal was 0.822 RPM ratio (pull-down/input).
“GATGATTGTTCTCCCAGCTGATGAATTAAGTGCATCGAGTAAACAAATTTTCCTAATCTTTCTGTTCAAGCGCCATCTAC”: the binding signal is 1.43 RPM ratio (pull-down/input).
Under “GATGATTGTTCTCCCAGCTGATGAATTAAGCTCTTCGAGTAAACAAATTTTCCTAATCTTTCTGTTCAAGCGCCATCTAC” stands 0.86 RPM ratio (pull-down/input).
Under “GATGATTGTTCTCCCAGCTGATGAATTTTATTCTTCGAGTAAACAAATTTTCCTAATCTTTCTGTTCAAGCGCCATCTAC” stands 0.886 RPM ratio (pull-down/input).
The value for “GATGATTGTTCTCCCAGCTGATGAATTGTATTCATCGAGTAAACAAATTTTCCTAATCTTTCTGTTCAAGCGCCATCTAC” was 1.42 RPM ratio (pull-down/input); that for “GATGATTGTTCTCCCAGCTGATGAATTTGGGCTTTCGAGTAAACAAATTTTCCTAATCTTTCTGTTCAAGCGCCATCTAC” was 0.904 RPM ratio (pull-down/input).
For the sequence “GATGATTGTTCTCCCAGCTGATGAATTCGACATTTCGAGTAAACAAATTTTCCTAATCTTTCTGTTCAAGCGCCATCTAC”, the binding signal was 0.853 RPM ratio (pull-down/input).
As to “GATGATTGTTCTCCCAGCTGATGAATTGAACCTGTCGAGTAAACAAATTTTCCTAATCTTTCTGTTCAAGCGCCATCTAC”, the binding signal is 0.817 RPM ratio (pull-down/input).
The value for “GATGATTGTTCTCCCAGCTGATGAATTAGAAGTGTCGAGTAAACAAATTTTCCTAATCTTTCTGTTCAAGCGCCATCTAC” was 0.888 RPM ratio (pull-down/input); that for “GATGATTGTTCTCCCAGCTGATGAATTATGAGCGTCGAGTAAACAAATTTTCCTAATCTTTCTGTTCAAGCGCCATCTAC” was 1.03 RPM ratio (pull-down/input).
The value for “GATGATTGTTCTCCCAGCTGATGAATTAGTACAGTCGAGTAAACAAATTTTCCTAATCTTTCTGTTCAAGCGCCATCTAC” was 1.03 RPM ratio (pull-down/input).
Under “GATGATTGTTCTCCCAGCTGATGAATTGTCGCATTCGAGTAAACAAATTTTCCTAATCTTTCTGTTCAAGCGCCATCTAC” stands 1.31 RPM ratio (pull-down/input).
Consider “GATGATTGTTCTCCCAGCTGATGAATTTCAGTCATCGAGTAAACAAATTTTCCTAATCTTTCTGTTCAAGCGCCATCTAC”, for which the binding signal was 1 RPM ratio (pull-down/input).
The value for “GATGATTGTTCTCCCAGCTGATGAATTTAGTCGATCGAGTAAACAAATTTTCCTAATCTTTCTGTTCAAGCGCCATCTAC” was 1.04 RPM ratio (pull-down/input).
The value for “GATGATTGTTCTCCCAGCTGATGAATTCATCACCTCGAGTAAACAAATTTTCCTAATCTTTCTGTTCAAGCGCCATCTAC” was 1 RPM ratio (pull-down/input); that for “GATGATTGTTCTCCCAGCTGATGAATTAACGTTATCGAGTAAACAAATTTTCCTAATCTTTCTGTTCAAGCGCCATCTAC” was 1.08 RPM ratio (pull-down/input).
The value for “GATGATTGTTCTCCCAGCTGATGAATTAGGATCGTCGAGTAAACAAATTTTCCTAATCTTTCTGTTCAAGCGCCATCTAC” was 0.818 RPM ratio (pull-down/input).
Consider “GATGATTGTTCTCCCAGCTGATGAATTTGTCGGATCGAGTAAACAAATTTTCCTAATCTTTCTGTTCAAGCGCCATCTAC”, for which the binding signal was 0.944 RPM ratio (pull-down/input).
Under “GATGATTGTTCTCCCAGCTGATGAATTCTCACTCTCGAGTAAACAAATTTTCCTAATCTTTCTGTTCAAGCGCCATCTAC” stands 0.84 RPM ratio (pull-down/input); under “GATGATTGTTCTCCCAGCTGATGAATTTCTAACCTCGAGTAAACAAATTTTCCTAATCTTTCTGTTCAAGCGCCATCTAC”, 0.836 RPM ratio (pull-down/input); under “GATGATTGTTCTCCCAGCTGATGAATTCACCCAGTCGAGTAAACAAATTTTCCTAATCTTTCTGTTCAAGCGCCATCTAC”, 0.813 RPM ratio (pull-down/input).
Under “GATGATTGTTCTCCCAGCTGATGAATTCCCAGCATCGAGTAAACAAATTTTCCTAATCTTTCTGTTCAAGCGCCATCTAC” stands 0.962 RPM ratio (pull-down/input).
As to “GATGATTGTTCTCCCAGCTGATGAATTAACAGATTCGAGTAAACAAATTTTCCTAATCTTTCTGTTCAAGCGCCATCTAC”, the binding signal was 0.964 RPM ratio (pull-down/input).

For the origin of these results see article PMC12820563, “FoxP3 forms a head-to-head dimer in vivo and stabilizes its multimerization on adjacent microsatellites”.
